Measured values from the RNAGym collection of RNA variant scans (doi:10.7554/elife.90254).
Read counts are not given, so values of variants with three or more changes are uncertain.

B1: LINE1-mini (parent)
chain: GGCAGAGCUCAACACAGCGUGGCAAAGUGGCUGUGGCUAGACUGCC

Variants of: B1
Assay: self-cleavage, relative activity (ratio to wild type); higher = more cleavage; in vitro, sequencing; the parent is a self-cleaving ribozyme

Variant	self-cleavage
GGCAGAGCUCAACACAGCGUGGCAAAGUGGCUGUCUCUGGACCUCC [G35C G36U A39G U43C G44U]	0.08
GGCAGAGCCCAACACAGCGUGGCAAACUGGCUAUGGUUAGACUGCC [U9C G27C G33A C37U]	0.03
GGCAGAGGGCAAUACGGCUUGGCAAAGUGUCUGUGGCUAGACUGCC [C8G U9G C13U A16G G19U G30U]	0.03
GGCAGAGCUCAACACAGCGUGGCAAAUUGCCUUUGGCUAGACUGCC [G27U G30C G33U]	0.06
AGCACAGCUCAACAACGAGUGGCAAAGUAGCUGUGGCUAGACUGCU [G1A G5C C15A A16C C18A G29A C46U]	0.02
GGCAGAGCUCGACACAGCGUGGCAAAGUGGCUGUGGCUAGACAUCC [A11G U43A G44U]	0.02
GGCUGGGCUCAACACAGCCUGGCAAAGUGGCUGUGGCUAGCCUGCC [A4U A6G G19C A41C]	0.04
GGAAGCGCUCAACACAGCGUCGCAAAGUGGCUGUGGCUAGACUGUC [C3A A6C G21C C45U]	0.36
GGCAGAGCUAAGCACAGCGUGGCAAAGUGGCUGUGGCUAAACUGCC [C10A A12G G40A]	0.01
GGCAGAGCUCAACACAGCGUGGCAAAGUAGCUGUGCCUUGACUUCC [G29A G36C A39U G44U]	0.04
GGCAGAGCUAAACACAGGGUGGCAAAGUGGCUUUGGCUUGACCGCC [C10A C18G G33U A39U U43C]	0
GGCAGAGCUCAACAAGGCCUGGCAAAGUGGUUGUGGCUCGACUGCC [C15A A16G G19C C31U A39C]	0.01
GGCAGAGCUCAACACAGCGUGGAAAAGUGGCAGUGGCUGGACUGCC [C23A U32A A39G]	0.04
UGCAGCGCUCAACACAGCGUGGCAACGUGGCUAUGGCUAGACUGCC [G1U A6C A26C G33A]	0.03
GCCAGAGCUCAACAUAGCGUGGCAAAGUGGCUGAGACUAGACUUCC [G2C C15U U34A G36A G44U]	0.05
GGCAGAUCUCAACACAGCGUGGCAAAGGGGCUGAGGCUAGACUGCC [G7U U28G U34A]	0.04
GGUAGAGCUCAACACAGCGUGGCAAAGUGGCUGUGGCUAAAAUGCC [C3U G40A C42A]	0.14
AGCAGAGAUCAACACCGCGUGGCAAAGUGUCCGUGGCUAGAGUGCC [G1A C8A A16C G30U U32C C42G]	0.69
GGCAGAGCUCAACACAGCGUGGCAACGUGGCUGUGGGUAGAUUGCC [A26C C37G C42U]	0.03

Variant	self-cleavage
GUCAGAGCUCAACAAAUCGAUGUAAAGUGGCUGUGGCUAGACUGCC [G2U C15A G17U U20A G21U C23U]	0.05
GGCAGUGCUCAACACACCGUAGCUAAGUGGCUGUGGCUAGACUGCC [A6U G17C G21A A24U]	0.45
GGCCGAGCUCAACACACCGUGGCAAAGUGGCUGUGGCUAAACUGCC [A4C G17C G40A]	0.07
CGCAGAGCUCAACACAGCGUGGCAAAGUGGGUGUGGCUAGACUUCC [G1C C31G G44U]	0
GGCAGAACGCAACACAGCGUGGCAUAGUGGCUUUUGCUAGACUGCA [G7A U9G A25U G33U G35U C46A]	0.01
GACAGAGCUGAACACAGCGUGGCAAAUUGGCUGUGGCUAGACUGCC [G2A C10G G27U]	0.24
GGCAGAGCUCCACACAGCGCGGCAAAGUGGCUGCGGCUAGACUGCC [A11C U20C U34C]	0.02
GGCAGAGUUCUACCCAGCGUGUCAAAGUGGCUGUGGCUAGACUGCC [C8U A11U A14C G22U]	0.01
GCCAGAGCUCAACAUAGUGUGGCAAAGUAGCUGUGGCUAGACUGCC [G2C C15U C18U G29A]	0.01
GGCUGAGCUCAACACAGCGUGGCAAAGGGGGUGUGGCUAGACUGCC [A4U U28G C31G]	0
GGCAGAGCUCAACACAGCGUGAGAAAAUGGCUGUGGCUAGACUGAC [G22A C23G G27A C45A]	0.62
GGCAGGGCCCAACACAGCAUGGCAAAGUGGCUGUGGCUAGACUGCC [A6G U9C G19A]	0.02
GGCAGAACUCAAAAUACCAUGGCAAAGUGGCUGUCGCUAGACUGCC [G7A C13A C15U G17C G19A G35C]	0.19
GGCAGCGCCUAACACAGCGUGGCAAAGUGGUUGUGGCUAGACUGCC [A6C U9C C10U C31U]	0.02
GGCAGAGCUCAACACAGCGUGGCAAAGUGGAUGCGGCUAUACUGCC [C31A U34C G40U]	0.08
GGAAGAGGUCAACACAGCGUGGCAAAGUGGCUGUGACUAGACCGAC [C3A C8G G36A U43C C45A]	0.01
GUCAGAGCUCAACACAGCCUGGCAAAGUCGCGGUGGCUAGACUGCC [G2U G19C G29C U32G]	0.06
GGCAGAGAGCAACCCAGCGUGGCAAAUUGGCUGUGGGUAGACUGCC [C8A U9G A14C G27U C37G]	0.12
GGCAAAGCUUAACACAGCGCGGCAAAGUGGCUGUGGCUAGACUGCC [G5A C10U U20C]	0.01

Variant	self-cleavage
GGCAGAGCUCAACACAGAGUGGCUAAGUGGCUGUGGCUAGAUUGCC [C18A A24U C42U]	0.07
UGCAGAGCUCAACCCAUCACGGCAAAGUGGCUGUGGCUAGACUGCC [G1U A14C G17U G19A U20C]	0
GACAUAACUCAACACAGCGUGGCAAAGUGGCUGUGGCUAGACUGCC [G2A G5U G7A]	0.67
GGCAGAGCUCAACACAGCGUGGAAAAGUGGGUGUUGCUAGACUGCC [C23A C31G G35U]	0.03
GGCAGAGCUCAACACAGCGUGGCAAAGUGUCAGUGGCUAGACCGCC [G30U U32A U43C]	0.02
GGCAGAGCUCAACAAAGCGUGGCAAAGUGGCUGUGGCUAUACUGCA [C15A G40U C46A]	0.09
GGCAUAGCUCAACACAGCGUGGCAAACUGGCUGUGUCUAGACUGCC [G5U G27C G36U]	0.02
GGCAGAGCUCAACACAGCGUGGCAAAGUGGCUGUGGGUAGAUGGCC [C37G C42U U43G]	0.03
GGAAGAGCUCAACACAGGGUGGCAAAGUGCCUGUGGCUAGAGUGCC [C3A C18G G30C C42G]	0.04
GGCAGAGAUCAACACAGCGUGGCAAGGUGGCUGUGACUAGACUGCC [C8A A26G G36A]	0.07
GGCAGGGCUCAAUACAGCGGGGCAAAGUGGCUGUGGCUAGACUGCC [A6G C13U U20G]	0.61
GGCAGAGCUCAACACACCGUGGCUAAGUGGCUGUGGCUAGACUGCU [G17C A24U C46U]	0.44
GGCAGAACUCAGCACAGCGUGUCAAAGUCGCUGUGGCUGGACUGCC [G7A A12G G22U G29C A39G]	0.01
GGCGGAGUUCAACACAGCGUGGUAAAGUGCCUGUGGCUAGAUUGCC [A4G C8U C23U G30C C42U]	0.33
GGCAGAGAUCAACACAGCGUGGUAAAGCGGCUGUUGCUAUACUGAC [C8A C23U U28C G35U G40U C45A]	0.02
GGCAGAGCUCAACACGGCGUGGCAAAGUGUCUAAGUCUAGACUGCC [A16G G30U G33A U34A G36U]	0.02
GGCAUAGCUAAACACAGUGUGGCAAAGUAGCUGUGGCUAGACUGCU [G5U C10A C18U G29A C46U]	0.03
GUCAGAGCUCAACAAAGGCUGGCAAAGUGGCUGUGGCUAGACUGCC [G2U C15A C18G G19C]	0.13
